Measurements: the supplement of paper PMC9151546
Single values are uncertain, as repeats are few or missing.

How the values were obtained:
CHO-K1 [1] = assay: micronucleus frequency (% of nucleated events); higher = more micronuclei (genotoxic)
CHO-K1 [2] = assay: hypodiploid nuclei frequency (% of nucleated events); higher = more hypodiploid events (aneugenic)
CHO-K1 [3] = assay: relative survival (nuclei to bead ratio vs DMSO control) (% of vehicle control); higher = more surviving cells
[4] = concentration: 2.3 (µM), S9 metabolic activation: with S9, exposure time: 3-4 hours
[5] = concentration: 2.3 (µM), S9 metabolic activation: without S9, exposure time: 24 hours
[6] = concentration: 2.87 (µM), S9 metabolic activation: with S9, exposure time: 3-4 hours
[7] = concentration: 2.87 (µM), S9 metabolic activation: without S9, exposure time: 24 hours
[8] = concentration: 3.59 (µM), S9 metabolic activation: with S9, exposure time: 3-4 hours
[9] = concentration: 3.59 (µM), S9 metabolic activation: without S9, exposure time: 24 hours
[10] = concentration: 4.49 (µM), S9 metabolic activation: with S9, exposure time: 3-4 hours
[11] = concentration: 4.49 (µM), S9 metabolic activation: without S9, exposure time: 24 hours
[12] = concentration: 5.6 (µM), S9 metabolic activation: with S9, exposure time: 3-4 hours
[13] = concentration: 5.6 (µM), S9 metabolic activation: without S9, exposure time: 24 hours
[14] = concentration: 7 (µM), S9 metabolic activation: with S9, exposure time: 3-4 hours
[15] = concentration: 7 (µM), S9 metabolic activation: without S9, exposure time: 24 hours
[16] = concentration: 8.8 (µM), S9 metabolic activation: with S9, exposure time: 3-4 hours
[17] = concentration: 8.8 (µM), S9 metabolic activation: without S9, exposure time: 24 hours
[18] = concentration: 11 (µM), S9 metabolic activation: with S9, exposure time: 3-4 hours
[19] = concentration: 11 (µM), S9 metabolic activation: without S9, exposure time: 24 hours
[20] = concentration: 13.7 (µM), S9 metabolic activation: with S9, exposure time: 3-4 hours
[21] = concentration: 13.7 (µM), S9 metabolic activation: without S9, exposure time: 24 hours
[22] = concentration: 17.1 (µM), S9 metabolic activation: with S9, exposure time: 3-4 hours
[23] = concentration: 17.1 (µM), S9 metabolic activation: without S9, exposure time: 24 hours
[24] = concentration: 21.4 (µM), S9 metabolic activation: with S9, exposure time: 3-4 hours
[25] = concentration: 21.4 (µM), S9 metabolic activation: without S9, exposure time: 24 hours
[26] = concentration: 26.7 (µM), S9 metabolic activation: with S9, exposure time: 3-4 hours
[27] = concentration: 26.7 (µM), S9 metabolic activation: without S9, exposure time: 24 hours
[28] = concentration: 33.4 (µM), S9 metabolic activation: with S9, exposure time: 3-4 hours
[29] = concentration: 33.4 (µM), S9 metabolic activation: without S9, exposure time: 24 hours
[30] = concentration: 41.8 (µM), S9 metabolic activation: with S9, exposure time: 3-4 hours
[31] = concentration: 41.8 (µM), S9 metabolic activation: without S9, exposure time: 24 hours
[32] = concentration: 52 (µM), S9 metabolic activation: with S9, exposure time: 3-4 hours
[33] = concentration: 52 (µM), S9 metabolic activation: without S9, exposure time: 24 hours
[34] = concentration: 65 (µM), S9 metabolic activation: with S9, exposure time: 3-4 hours
[35] = concentration: 65 (µM), S9 metabolic activation: without S9, exposure time: 24 hours
[36] = concentration: 82 (µM), S9 metabolic activation: with S9, exposure time: 3-4 hours
[37] = concentration: 82 (µM), S9 metabolic activation: without S9, exposure time: 24 hours
[38] = concentration: 102 (µM), S9 metabolic activation: with S9, exposure time: 3-4 hours
[39] = concentration: 102 (µM), S9 metabolic activation: without S9, exposure time: 24 hours
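Wherever hypodiploid nuclei frequency (% of nucleated events) is given: hypodiploid nuclei gated on a flow cytometer with 488 nm excitation after SYTOX Green staining, cultures at 37 °C, positive controls vinblastine without S9 and cyclophosphamide with S9.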
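Wherever micronucleus frequency (% of nucleated events) is given: cells lysed with nuclei stained by SYTOX Green, then micronucleus-gated events counted against nucleated events by flow cytometry with 488 nm excitation.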
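Wherever relative survival (nuclei to bead ratio vs DMSO control) is given: Lysed-cell nuclei stained with SYTOX Green and counted against counting beads by flow cytometry at 488 nm excitation, with vinblastine (no S9) and cyclophosphamide (plus S9) as positive controls.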

In the case of `Oc1c(Cl)c(Cl)c(Cl)c(Cl)c1Cl` [Pentachlorophenol], the micronucleus frequency (CHO-K1 [1]; [4]) was 2.2%, the micronucleus frequency (CHO-K1 [1]; [5]) was 2.76% and the micronucleus frequency (CHO-K1 [1]; [6]) was 1.84%. It also gave a micronucleus frequency (CHO-K1 [1]; [7]) of 2.06%, a micronucleus frequency (CHO-K1 [1]; [8]) of 1.52% and a micronucleus frequency (CHO-K1 [1]; [9]) of 2.34%. It also gave a micronucleus frequency (CHO-K1 [1]; [10]) of 1.7%, a micronucleus frequency (CHO-K1 [1]; [11]) of 2.32% and a micronucleus frequency (CHO-K1 [1]; [12]) of 1.18%. The micronucleus frequency (CHO-K1 [1]; [13]) was 4.22%, the micronucleus frequency (CHO-K1 [1]; [14]) was 1.6% and the micronucleus frequency (CHO-K1 [1]; [15]) was 3.2%. The micronucleus frequency (CHO-K1 [1]; [16]) was 1.54%, the micronucleus frequency (CHO-K1 [1]; [17]) was 3.1% and the micronucleus frequency (CHO-K1 [1]; [18]) was 1.18%. It also gave a micronucleus frequency (CHO-K1 [1]; [19]) of 2.54%, a micronucleus frequency (CHO-K1 [1]; [20]) of 1.3% and a micronucleus frequency (CHO-K1 [1]; [21]) of 4.52%. The micronucleus frequency (CHO-K1 [1]; [22]) was 1.46%, the micronucleus frequency (CHO-K1 [1]; [23]) was 3.76% and the micronucleus frequency (CHO-K1 [1]; [24]) was 1.14%. It also gave a micronucleus frequency (CHO-K1 [1]; [25]) of 2.9%, a micronucleus frequency (CHO-K1 [1]; [26]) of 1.38% and a micronucleus frequency (CHO-K1 [1]; [27]) of 2.62%. It also gave a micronucleus frequency (CHO-K1 [1]; [28]) of 1.18%, a micronucleus frequency (CHO-K1 [1]; [29]) of 3.24% and a micronucleus frequency (CHO-K1 [1]; [30]) of 1.66%. For the same compound, the micronucleus frequency (CHO-K1 [1]; [31]) was 2.44%, the micronucleus frequency (CHO-K1 [1]; [32]) was 1.64% and the micronucleus frequency (CHO-K1 [1]; [33]) was 3.74%. It also gave a micronucleus frequency (CHO-K1 [1]; [34]) of 2.22%, a micronucleus frequency (CHO-K1 [1]; [35]) of 3.68% and a micronucleus frequency (CHO-K1 [1]; [36]) of 1.76%. For the same compound, the micronucleus frequency (CHO-K1 [1]; [37]) was 3.1%, the micronucleus frequency (CHO-K1 [1]; [38]) was 1.82% and the micronucleus frequency (CHO-K1 [1]; [39]) was 2.72%. For the same compound, the hypodiploid nuclei frequency (CHO-K1 [2]; [4]) was 0.24%, the hypodiploid nuclei frequency (CHO-K1 [2]; [5]) was 0.46% and the hypodiploid nuclei frequency (CHO-K1 [2]; [6]) was 0.28%. The hypodiploid nuclei frequency (CHO-K1 [2]; [7]) was 0.6%, the hypodiploid nuclei frequency (CHO-K1 [2]; [8]) was 0.16% and the hypodiploid nuclei frequency (CHO-K1 [2]; [9]) was 0.66%. It also gave a hypodiploid nuclei frequency (CHO-K1 [2]; [10]) of 0.38%, a hypodiploid nuclei frequency (CHO-K1 [2]; [11]) of 0.78% and a hypodiploid nuclei frequency (CHO-K1 [2]; [12]) of 0.22%. It also gave a hypodiploid nuclei frequency (CHO-K1 [2]; [13]) of 1.1%, a hypodiploid nuclei frequency (CHO-K1 [2]; [14]) of 0.14% and a hypodiploid nuclei frequency (CHO-K1 [2]; [15]) of 0.84%. For the same compound, the hypodiploid nuclei frequency (CHO-K1 [2]; [16]) was 0.2%, the hypodiploid nuclei frequency (CHO-K1 [2]; [17]) was 0.94% and the hypodiploid nuclei frequency (CHO-K1 [2]; [18]) was 0.14%. It also gave a hypodiploid nuclei frequency (CHO-K1 [2]; [19]) of 0.98%, a hypodiploid nuclei frequency (CHO-K1 [2]; [20]) of 0.18% and a hypodiploid nuclei frequency (CHO-K1 [2]; [21]) of 0.84%. For the same compound, the hypodiploid nuclei frequency (CHO-K1 [2]; [22]) was 0.26%, the hypodiploid nuclei frequency (CHO-K1 [2]; [23]) was 0.74% and the hypodiploid nuclei frequency (CHO-K1 [2]; [24]) was 0.02%. It also gave a hypodiploid nuclei frequency (CHO-K1 [2]; [25]) of 0.72%, a hypodiploid nuclei frequency (CHO-K1 [2]; [26]) of 0.24% and a hypodiploid nuclei frequency (CHO-K1 [2]; [27]) of 0.94%. The hypodiploid nuclei frequency (CHO-K1 [2]; [28]) was 0.22%, the hypodiploid nuclei frequency (CHO-K1 [2]; [29]) was 1.34% and the hypodiploid nuclei frequency (CHO-K1 [2]; [30]) was 0.2%. The hypodiploid nuclei frequency (CHO-K1 [2]; [31]) was 1.12%, the hypodiploid nuclei frequency (CHO-K1 [2]; [32]) was 0.32% and the hypodiploid nuclei frequency (CHO-K1 [2]; [33]) was 1.56%. The hypodiploid nuclei frequency (CHO-K1 [2]; [34]) was 0.32%, the hypodiploid nuclei frequency (CHO-K1 [2]; [35]) was 1.48% and the hypodiploid nuclei frequency (CHO-K1 [2]; [36]) was 0.24%. The hypodiploid nuclei frequency (CHO-K1 [2]; [37]) was 2.32%, the hypodiploid nuclei frequency (CHO-K1 [2]; [38]) was 0.5% and the hypodiploid nuclei frequency (CHO-K1 [2]; [39]) was 1.3%. For the same compound, the relative survival (CHO-K1 [3]; [4]) was 145, the relative survival (CHO-K1 [3]; [5]) was 150 and the relative survival (CHO-K1 [3]; [6]) was 142. For the same compound, the relative survival (CHO-K1 [3]; [7]) was 155, the relative survival (CHO-K1 [3]; [8]) was 127 and the relative survival (CHO-K1 [3]; [9]) was 118. It also gave a relative survival (CHO-K1 [3]; [10]) of 148, a relative survival (CHO-K1 [3]; [11]) of 128 and a relative survival (CHO-K1 [3]; [12]) of 151. For the same compound, the relative survival (CHO-K1 [3]; [13]) was 119, the relative survival (CHO-K1 [3]; [14]) was 127 and the relative survival (CHO-K1 [3]; [15]) was 110. For the same compound, the relative survival (CHO-K1 [3]; [16]) was 133, the relative survival (CHO-K1 [3]; [17]) was 119 and the relative survival (CHO-K1 [3]; [18]) was 121. For the same compound, the relative survival (CHO-K1 [3]; [19]) was 114, the relative survival (CHO-K1 [3]; [20]) was 150 and the relative survival (CHO-K1 [3]; [21]) was 98.8. It also gave a relative survival (CHO-K1 [3]; [22]) of 132, a relative survival (CHO-K1 [3]; [23]) of 114 and a relative survival (CHO-K1 [3]; [24]) of 113. The relative survival (CHO-K1 [3]; [25]) was 111, the relative survival (CHO-K1 [3]; [26]) was 97.4 and the relative survival (CHO-K1 [3]; [27]) was 97.9. For the same compound, the relative survival (CHO-K1 [3]; [28]) was 102, the relative survival (CHO-K1 [3]; [29]) was 121 and the relative survival (CHO-K1 [3]; [30]) was 92.9. The relative survival (CHO-K1 [3]; [31]) was 95.7, the relative survival (CHO-K1 [3]; [32]) was 115 and the relative survival (CHO-K1 [3]; [33]) was 82.3. The relative survival (CHO-K1 [3]; [34]) was 95.8, the relative survival (CHO-K1 [3]; [35]) was 83.2 and the relative survival (CHO-K1 [3]; [36]) was 97.2. The relative survival (CHO-K1 [3]; [37]) was 82.3, the relative survival (CHO-K1 [3]; [38]) was 78 and the relative survival (CHO-K1 [3]; [39]) was 54.9.
